Assay results from the supplement of paper PMC4967469.
The IC50 comes from the fitted curve, where viability falls to half of the control; a fit beyond the top or the lowest dose is shown as a bound at that dose. AUC, from the same fit, is the share of area under the viability curve across the 256-fold dose range: 1 means no effect, lower means more sensitive. For part of these data: The top dose, if marked as inferred, comes from the curve model; the source does not state it.

Tests used:
Test in all cases: Viability of human cancer cell lines after 72 h of drug (GDSC screen)
[1] = compound: C=C(c1ccc(C(=O)O)cc1)c1cc2c(cc1C)C(C)(C)CCC2(C)C [Bexarotene]; settings: top dose 8 µM
Procedure: (§1)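 Human cancer cell lines in 384-well plates, medium with 10% serum, drug for 72 h over a 256-fold dose range (nine 2-fold or five 4-fold steps up to the top dose). Adherent lines were fixed and stained with the nucleic acid dye Syto60, suspension lines read with resazurin; signal relative to control wells, capped at 0 and 100%. One two-parameter sigmoid per drug and line, fitted in a mixed model over all curves with the slope shared within a line.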

[2] = compound: COc1ccc(C(=O)CC2(O)C(=O)Nc3c(Cl)ccc(Cl)c32)cc1 [YK 4-279]; settings: top dose 10 µM
Procedure: as §1

[3] = compound: COc1cc([C@@H]2c3cc4c(cc3[C@@H](O[C@@H]3O[C@@H]5CO[C@@H](C)O[C@H]5[C@H](O)[C@H]3O)[C@H]3COC(=O)[C@H]23)OCO4)cc(OC)c1O [Etoposide]; settings: top dose 16 µM
Procedure: as §1

[4] = compound: Oc1nc(-c2ccc(C(F)(F)F)cc2)nc2c1CSCC2 [XAV 939]; settings: top dose 5 µM; top dose inferred
Procedure: as §1

[5] = compound: Cc1ccc2nc(NCCN)c3ncc(C)n3c2c1 [BMS-345541]; settings: top dose 16 µM
Procedure: as §1

[6] = compound: COc1cc(C(=O)NC2CCN(C)CC2)ccc1Nc1ncc2c(n1)N(C1CCCC1)C(C)CC(=O)N2C [NPK76-II-72-1]; settings: top dose 10.24 µM; top dose inferred
Procedure: as §1

[7] = compound: O=C(O)c1ccc(-c2c[nH]c3ncc(-c4ccccc4)cc23)cc1C1CCCC1 [GSK-650394]; settings: top dose 16 µM; top dose inferred
Procedure: as §1

[8] = compound: NC(=O)Nc1cc(-c2cccc(F)c2)sc1C(=O)N[C@H]1CCCNC1 [AZD7762]; settings: top dose 2 µM
Procedure: as §1

Row | Cell Line | AUC [1] | IC50 [1] [µM] | AUC [2] | IC50 [2] [µM] | AUC [3] | IC50 [3] [µM] | AUC [4] | IC50 [4] [µM] | AUC [5] | IC50 [5] [µM] | AUC [6] | IC50 [6] [µM] | AUC [7] | IC50 [7] [µM] | AUC [8] | IC50 [8] [µM]
1 | LU-139 (small cell lung carcinoma, suspension) | 0.981 | > 8 | 0.854 | > 10 | 0.71 | 4.7 | 0.969 | > 5 | 0.718 | 5 | 0.575 | 1.09 | 0.976 | > 16 | 0.928 | > 2
2 | LU-165 (small cell lung carcinoma, suspension) | 0.984 | > 8 | 0.936 | > 10 | 0.822 | 10.9 | 0.978 | > 5 | 0.808 | 9.53 | 0.926 | > 10.2 | 0.983 | > 16 | 0.988 | > 2
3 | M14 (melanoma, adherent) | 0.92 | > 8 | 0.666 | 1.86 | 0.814 | 9.31 | 0.985 | > 5 | 0.974 | > 16 | 0.859 | 9.25 | 0.983 | > 16 | 0.545 | 0.167
4 | MC116 (B-cell lymphoma, suspension) | 0.961 | 7.43 | 0.69 | 1.79 | 0.934 | 11.9 | 0.999 | > 5 | 0.808 | 5.54 | 0.937 | 7.78 | 0.967 | 15.9 | 0.738 | 0.467
5 | MC-IXC (neuroblastoma, adherent) | 0.919 | 6.27 | 0.671 | 1.62 | 0.169 | 0.15 | 0.996 | > 5 | 0.91 | 11.6 | 0.748 | 2.58 | 0.945 | > 16 | 0.498 | 0.124
6 | MDA-MB-175-VII (breast, adherent) | 0.97 | > 8 | 0.975 | > 10 | 0.92 | > 16 | 0.986 | > 5 | 0.914 | > 16 | 0.983 | > 10.2 | 0.979 | > 16 | 0.931 | > 2
7 | MDA-MB-330 (breast, adherent) | 0.85 | 7.4 | 0.898 | > 10 | 0.929 | > 16 | 0.978 | > 5 | 0.917 | > 16 | 0.92 | > 10.2 | 0.945 | > 16 | 0.912 | > 2
8 | MDA-MB-361 (breast, adherent) | 0.946 | > 8 | 0.749 | 3.23 | 0.869 | 14.6 | 0.968 | > 5 | 0.942 | > 16 | 0.949 | > 10.2 | 0.871 | 14.8 | 0.738 | 0.593
9 | MDA-MB-436 (breast, adherent) | 0.966 | > 8 | 0.812 | 7.13 | 0.809 | 11.1 | 0.918 | > 5 | 0.973 | > 16 | 0.93 | > 10.2 | 0.976 | > 16 | 0.803 | 1.31
10 | MDA-MB-453 (breast, adherent) | 0.924 | > 8 | 0.764 | 4.02 | 0.978 | > 16 | 0.984 | > 5 | 0.842 | 13.1 | 0.804 | 5.83 | 0.862 | > 16 | 0.857 | 1.93
11 | ME-1 (acute myeloid leukaemia, suspension) | 0.969 | > 8 | 0.985 | > 10 | 0.976 | > 16 | 0.982 | > 5 | 0.814 | 9.53 | 0.773 | 4.27 | 0.987 | > 16 | 0.913 | > 2
12 | ME-180 (cervix, adherent) | 0.981 | > 8 | 0.656 | 1.73 | 0.503 | 1.02 | 0.981 | > 5 | 0.793 | 7.68 | 0.822 | 6.34 | 0.911 | > 16 | 0.735 | 0.606
13 | MEG-01 (chronic myeloid leukaemia, suspension) | 0.902 | > 8 | 0.729 | 2.68 | 0.696 | 3.42 | 0.985 | > 5 | 0.686 | 3.2 | 0.623 | 1.36 | 0.752 | 5.02 | 0.477 | 0.109
14 | MEL-JUSO (melanoma, adherent) | 0.956 | > 8 | 0.789 | 4.98 | 0.434 | 0.646 | 0.976 | > 5 | 0.726 | 4.8 | 0.764 | 4.13 | 0.736 | 5.16 | 0.529 | 0.151
15 | MES-SA (uterus, adherent) | 0.992 | > 8 | 0.511 | 0.665 | 0.358 | 0.433 | 0.99 | > 5 | 0.825 | 7.79 | 0.991 | > 10.2 | 0.705 | 3.4 | 0.767 | 0.639
16 | MFE-280 (endometrium, adherent) | 0.982 | > 8 | 0.817 | 7.58 | 0.883 | > 16 | 0.98 | > 5 | 0.935 | > 16 | 0.868 | > 10.2 | 0.945 | > 16 | 0.921 | > 2
17 | MFE-296 (endometrium, adherent) | 0.968 | > 8 | 0.482 | 0.555 | 0.488 | 0.925 | 0.974 | > 5 | 0.938 | > 16 | 0.949 | > 10.2 | 0.802 | 8.54 | 0.667 | 0.378

Row | Cell Line | AUC [1] | IC50 [1] [µM] | AUC [2] | IC50 [2] [µM] | AUC [3] | IC50 [3] [µM] | AUC [4] | IC50 [4] [µM] | AUC [5] | IC50 [5] [µM] | AUC [6] | IC50 [6] [µM] | AUC [7] | IC50 [7] [µM] | AUC [8] | IC50 [8] [µM]
18 | MFH-ino (soft tissue, adherent) | 0.774 | 3.69 | 0.793 | 5.46 | 0.469 | 0.81 | 0.91 | > 5 | 0.906 | > 16 | 0.965 | > 10.2 | 0.505 | 1.03 | 0.713 | 0.563
19 | MFM-223 (breast, adherent) | 0.985 | > 8 | 0.666 | 1.8 | 0.985 | > 16 | 0.914 | > 5 | 0.942 | > 16 | 0.772 | 3.91 | 0.989 | > 16 | 0.734 | 0.575
20 | MHH-ES-1 (Ewing sarcoma, adherent) | 0.972 | > 8 | 0.623 | 1.35 | 0.399 | 0.53 | 0.969 | > 5 | 0.854 | 12.4 | 0.599 | 1.19 | 0.83 | 9.88 | 0.529 | 0.15
21 | MHH-PREB-1 (B-cell leukaemia, suspension) | 0.948 | > 8 | 0.672 | 1.77 | 0.804 | 7.02 | 0.956 | > 5 | 0.718 | 3.82 | 0.456 | 0.492 | 0.886 | 14.5 | 0.468 | 0.103
22 | MLMA (hairy cell leukaemia, semi-adherent) | 0.986 | > 8 | 0.553 | 0.872 | 0.699 | 3.65 | 0.983 | > 5 | 0.873 | 15.7 | 0.67 | 1.91 | 0.969 | > 16 | 0.364 | 0.0526
23 | MMAC-SF (melanoma, adherent) | 0.987 | > 8 | 0.705 | 2.43 | 0.751 | 5.47 | 0.986 | > 5 | 0.983 | > 16 | 0.979 | > 10.2 | 0.888 | > 16 | 0.982 | > 2
24 | MN-60 (B-cell leukaemia, suspension) | 0.981 | > 8 | 0.953 | > 10 | 0.888 | > 16 | 0.986 | > 5 | 0.799 | 8.01 | 0.906 | > 10.2 | 0.988 | > 16 | 0.954 | > 2
25 | MOG-G-CCM (glioma, adherent) | 0.961 | > 8 | 0.717 | 2.89 | 0.741 | 5.57 | 0.903 | > 5 | 0.84 | 13.8 | 0.77 | 4.53 | 0.92 | > 16 | 0.664 | 0.387
26 | MOG-G-UVW (glioma, adherent) | 0.93 | > 8 | 0.58 | 1.03 | 0.454 | 0.752 | 0.934 | > 5 | 0.836 | 10.2 | 0.919 | > 10.2 | 0.833 | 9.94 | 0.576 | 0.2
27 | MOLT-4 (lymphoblastic leukaemia, suspension) | 0.966 | > 8 | 0.674 | 1.72 | 0.261 | 0.244 | 0.98 | > 5 | 0.6 | 1.78 | 0.741 | 2.65 | 0.668 | 2.65 | 0.56 | 0.176
28 | MONO-MAC-6 (acute myeloid leukaemia, suspension) | 0.881 | > 8 | 0.786 | 4.6 | 0.801 | 8.36 | 0.922 | > 5 | 0.375 | 0.442 | 0.729 | 2.99 | 0.533 | 1.24 | 0.088 | < 0.00781
29 | MPP-89 (mesothelioma, adherent) | 0.947 | > 8 | 0.894 | > 10 | 0.821 | 13.2 | 0.944 | > 5 | 0.953 | > 16 | 0.865 | > 10.2 | 0.746 | 6.45 | 0.625 | 0.307
30 | MRK-nu-1 (breast, suspension) | 0.936 | > 8 | 0.709 | 2.29 | 0.366 | 0.44 | 0.98 | > 5 | 0.921 | > 16 | 0.78 | 3.85 | 0.646 | 2.44 | 0.942 | > 2
31 | MS751 (cervix, adherent) | 0.988 | > 8 | 0.631 | 1.39 | 0.585 | 1.67 | 0.926 | > 5 | 0.9 | > 16 | 0.91 | > 10.2 | 0.914 | > 16 | 0.831 | 1.13
32 | MS-1 (small cell lung carcinoma, suspension) | 0.985 | > 8 | 0.905 | > 10 | 0.71 | 3.62 | 0.984 | > 5 | 0.861 | 11.3 | 0.863 | 7.36 | 0.933 | > 16 | 0.871 | 1.55
33 | MZ1-PC (pancreas, adherent) | 0.852 | > 8 | 0.72 | 3.11 | 0.452 | 0.719 | 0.861 | > 5 | 0.848 | > 16 | 0.742 | 3.79 | 0.828 | 13.3 | 0.902 | > 2
